Source: PubChem BioAssay AID588579 (National Center for Advancing Translational Sciences (NCATS), 2011)
Values joined by “and” are separate entries in the source; they are usually repeats but may differ in a detail not shown here. Equal values may be shown once. In all, about 400,000 compounds went through this assay and about 2,200 (0.55%) were called active. The inconclusive results got no clear call from the source; some entries with a clear call stand among them for comparison. Calls come from the whole dose curve; as a rule, active = well fitted inhibition curve with a large enough effect; inconclusive = small, poorly fitted or top-dose-only effect, or another doubt; inactive = no such curve, though single readings can be large or run the other way. Potencies beside an inconclusive call are fits to weak or partial responses and may not hold up.

What follows are molecules tested against DNA polymerase kappa (Homo sapiens) (UniProt Q9UBT6) (assay: qHTS for Inhibitors of Polymerase Kappa). Details: purified Pol kappa, fluorescent DNA synthesis assay, 10 min; series mostly up to 107 µM.
Summary of the method: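 Here, compound and 10 nM enzyme are combined for 15 min at room temperature; adding 50 nM substrate (final) starts DNA synthesis, tracked by fluorescence at 0 and 10 min against buffer-only wells.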
Potency is the fitted concentration of half-maximal effect; tags give direction and shape of the fitted curve.

Chain of UniProt Q9UBT6 (Q9UBT6 whole entry, looked up): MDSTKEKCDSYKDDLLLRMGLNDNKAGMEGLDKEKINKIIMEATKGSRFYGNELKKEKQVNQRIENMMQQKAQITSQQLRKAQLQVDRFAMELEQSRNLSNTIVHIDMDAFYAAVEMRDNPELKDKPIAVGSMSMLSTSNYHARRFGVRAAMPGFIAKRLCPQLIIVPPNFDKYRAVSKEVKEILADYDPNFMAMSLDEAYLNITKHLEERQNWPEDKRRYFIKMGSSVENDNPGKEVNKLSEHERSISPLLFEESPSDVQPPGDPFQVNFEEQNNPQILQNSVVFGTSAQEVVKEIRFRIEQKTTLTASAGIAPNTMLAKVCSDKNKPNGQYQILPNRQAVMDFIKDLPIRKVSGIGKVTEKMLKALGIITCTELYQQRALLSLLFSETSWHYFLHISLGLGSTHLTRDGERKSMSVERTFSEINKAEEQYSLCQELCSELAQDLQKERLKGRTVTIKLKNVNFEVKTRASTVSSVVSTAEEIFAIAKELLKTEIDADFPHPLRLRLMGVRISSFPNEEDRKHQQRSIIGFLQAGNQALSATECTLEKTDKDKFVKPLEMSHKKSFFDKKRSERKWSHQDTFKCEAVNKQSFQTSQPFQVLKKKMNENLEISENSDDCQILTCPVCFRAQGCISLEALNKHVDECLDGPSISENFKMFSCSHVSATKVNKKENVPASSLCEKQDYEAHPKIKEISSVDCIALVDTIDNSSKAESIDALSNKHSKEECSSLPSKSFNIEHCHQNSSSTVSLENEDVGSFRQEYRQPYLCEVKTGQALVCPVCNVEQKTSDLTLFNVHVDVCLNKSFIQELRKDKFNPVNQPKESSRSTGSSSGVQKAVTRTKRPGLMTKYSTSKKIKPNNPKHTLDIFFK

Structure (SMILES) | Potency
CCCCCC/C=C1\CC(C(=O)OCC)Oc2ccccc21 (configuration not stated) (tested in a mixture with another compound) | inconclusive: 70.8 µM [inhibitor, single point]
O=C(Cn1c(=O)n(Cc2ccco2)c(=O)c2c3c(sc21)CCCCC3)Nc1ccccc1 | inconclusive: 79.4 µM [inhibitor, partial curve]
NC(=O)C1(N2CCCCC2)CCN(C(=O)CCCn2c(=O)[nH]c3ccsc3c2=O)CC1 | inconclusive: 3.98 µM [inhibitor, partial curve, poor fit]
CCOC(=O)N1CCC(NC(=O)c2cc(C(=O)Nc3ccc(S(=O)(=O)N4CCOCC4)cc3)ccc2CO)CC1 | inactive
COc1cccc(OC)c1-c1nn2c(-c3cc(-c4ccccc4)n[nH]3)nnc2s1 | active: 28.2 µM
O=C(Cn1c(=O)n(Cc2ccco2)c(=O)c2cccnc21)Nc1ccccc1F | inactive
COc1ccccc1NC(=O)C1CCCN(c2nnc(C)c3c(C)n(-c4ccccc4)nc23)C1 (configuration not stated) | inactive
O=C(N/N=C/c1cn(Cc2ccccc2)c2ccccc12)c1cc(O)cc(O)c1 | inconclusive: 89.1 µM [inhibitor, single point]
Cc1ccc(-c2nc3scc(CCNC(=O)c4cccc(Br)c4)n3n2)cc1 | inactive
Cc1ccc(-c2cc(C(=O)N3CC(C)CC(C)C3)c3ccccc3n2)o1 (configuration not stated) | inconclusive: 100 µM [inhibitor, single point]
Cc1ccc(NCc2cccn2-c2nnc(N3CCCCCC3)s2)cc1 | inactive
CCOc1ccc(CNC(=O)Cn2c(=O)c3cccn3c3ccc(F)cc32)cc1 | inactive
COC(=O)c1sc(NC(=S)NNC(=O)c2c(Br)c(C)nn2C)c(C(=O)OC)c1C | inactive
COc1cc([C@H](Cc2ccccc2)NC(C)=O)oc(=O)c1 | inconclusive: 31.6 µM [inhibitor, partial curve, poor fit]
N#Cc1c(NC(=O)c2ccncc2)sc2c1CCC2 | inconclusive: 79.4 µM [inhibitor, partial curve, poor fit]
CCS(=O)(=O)N1Cc2ccccc2CC1C(=O)Nc1cc(S(C)(=O)=O)ccc1Cl (configuration not stated) | inconclusive: 89.1 µM [inhibitor, single point]
O=c1cc(CN2CCN(Cc3ccccc3)CC2)c2ccc(O)c(O)c2o1 | inconclusive: 22.4 µM [inhibitor, single point]
COc1ccc(S(=O)(=O)N2CCOCC2)cc1NC(=O)c1cccc(-n2cccc2)c1 | active: 39.8 µM
O=C(Nc1ccc2[nH]c(=S)sc2c1)c1ccccc1 | inactive
COc1cc(NC(=O)Cn2c(=O)n(Cc3ccccc3OC)c(=O)c3cccnc32)cc(OC)c1 | inconclusive: 100 µM [inhibitor, single point]
Cc1ccc(CCN2CC(C(=O)NCc3ccc4c(c3)OCO4)CC2=O)cc1 (configuration not stated) | inconclusive: 89.1 µM [inhibitor, partial curve, poor fit]

Structure (SMILES) | Potency
Cc1ccc(NC(=O)COc2ccc(/C=N\NC(=O)c3cccnc3)cc2)cc1C | inconclusive: 89.1 µM [inhibitor, partial curve, poor fit]
O=c1cc(CN2CCN(S(=O)(=O)c3ccc4c(c3)OCCO4)CC2)c2ccc(O)cc2o1 | inconclusive: 89.1 µM [inhibitor, single point]
CCN(CC)CCNC(=O)c1cc(S(C)(=O)=O)ccc1OC | inconclusive: 10.1 µM [inhibitor, single point]
O=C(/C=C/c1ccc(Br)cc1)c1ccc(NC(=O)c2ccco2)cc1 | inconclusive: 100 µM [inhibitor, single point]
O=[N+]([O-])c1ccc(O)c(/C=N/Nc2ncnc3c2cnn3-c2ccccc2)c1 | inactive
C=CCN=c1scc(-c2ccco2)n1/N=C/c1ccc(O)c(O)c1O | active: 22.4 µM
Cc1cc(C(=O)N/N=C/c2ccc(O)c([N+](=O)[O-])c2)c(C)n1-c1ccc(F)cc1 | inconclusive: 79.4 µM [inhibitor, single point]
O=C(Nc1ccc(S(=O)(=O)Nc2nccs2)cc1)c1ccc(S(=O)(=O)N2CCOCC2)cc1 | inactive
COc1ccccc1Nc1c2c(nc3ccc(NC(=O)/C=C/c4cccc(OC)c4OC)cc13)CCCC2 | inconclusive: 11.2 µM [inhibitor, partial curve, poor fit]
COc1ccc(Cl)cc1S(=O)(=O)NCCCn1ccnc1 | inconclusive: 89.1 µM [inhibitor, single point]
CCCCn1c2ccccc2c2nnc(SCCN3CCCCC3)nc21 | inconclusive: 79.4 µM [inhibitor, single point]
CCc1ccc(NC(=O)CS(=O)CC(=O)Nc2ccc(-n3cnnn3)c(C)c2)cc1 (configuration not stated) | inactive
CN(c1ccccc1)S(=O)(=O)c1nnc(NC(=O)COc2ccccc2F)s1 | inconclusive: 79.4 µM [inhibitor, partial curve, poor fit]
O=c1c2c3c(sc2[nH]c(=S)n1Cc1ccco1)CCC3 | inconclusive: 79.4 µM [inhibitor, single point]
CCc1ccc(C(=O)c2cn(CC(=O)Nc3cccc(OC)c3)c3ccc(OC)cc3c2=O)cc1 | active: 89.1 µM
CN(C)S(=O)(=O)N(CC(=O)NCCSCc1ccccc1)c1ccccc1 | inconclusive: 79.4 µM [inhibitor, partial curve] and inconclusive: 89.1 µM [inhibitor, partial curve, poor fit]
O=C(N/N=C/c1c(O)n(-c2ccccc2Cl)c(=O)c2ccccc12)c1cccnc1 | inconclusive: 50.1 µM [inhibitor, partial curve, poor fit]
N#CCCN1CCN(C(=O)c2c(N)no[n+]2[O-])CC1 | inactive
O=c1c2c3c(sc2n2cnnc2n1-c1ccccc1)N(Cc1ccccc1)CCC3 | inactive
Cc1cc(C(=O)NCc2cc(C(=O)O)co2)co1 | active: 79.4 µM
COc1ccc2occ(CC(=O)Nc3ccc(S(=O)(=O)Nc4nccc(C)n4)cc3)c2c1 | inconclusive: 89.1 µM [inhibitor, single point]
